Experimental data as given in PubChem BioAssay AID1508624 (National Center for Advancing Translational Sciences (NCATS), 2021).
Out of some 48,000 compounds screened, about 120 (0.25%) were called active. Not shown: some 4% with an inconclusive outcome. Calls come from the whole dose curve; as a rule, active = well fitted activation curve with a large enough effect; inconclusive = small, poorly fitted or top-dose-only effect, or another doubt; inactive = no such curve, though single readings can be large or run the other way. The list shows a part of the results.

Test: Primary qHTS for Identification of Small Molecule Activators of Huntingtin-Antisense Promoter Activity; note: nearly all actives have a fitted effect of over 55% in size
Conditions: HEK293 HTT-AS promoter firefly luciferase reporter, 24 h; series mostly up to 57.5 µM; activity change, positive = activation: at the top concentration
In short: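 Firefly luciferase signal from promoter-reporter HEK293 cells was scaled between vehicle (0%) and zero RLU (-100%). Compounds were tested at final concentrations of up to 57.5 uM over 24 h at 37 degrees C. PTC124 at 50 uM final served as control inhibitor.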

Activity change, positive = activation, inactive:
C[C@H]1C[C@H](O)c2ccsc2S1(=O)=O 0.392%
COCCNc1nc2c(c(=O)n(C)c(=O)n2C)n1Cc1c(F)cccc1Cl -29.9%
Cc1oc(-c2cccc(Cl)c2)nc1CN1CCC(C(=O)NC(C)c2ccccc2)CC1 (stereo not drawn) -14.6%
COc1ccc(Cl)cc1NC(=O)CSc1cn(CC(=O)N2CCCCC2)c2ccccc12 -42.7%
CCOc1ccc(CN2C(=O)c3ccccc3Sc3ccc(C(=O)NCc4ccco4)cc32)cc1 -28.1%
CCc1ccccc1NC(=O)CCCSc1nc(-c2ccco2)cc(C(F)(F)F)n1 4.9% [at 11.5 µM, percent change from vehicle, -100% = no light]
COc1ccc(NC(=O)C2=CC(c3ccco3)=NS(=O)(=O)N2C)cc1OC -4.93%
CCCN(C(=O)c1cn(C)c(=O)c2cc(OC)c(OC)cc12)c1ccc(CC)cc1 -24%
CCN(c1ccccc1)S(=O)(=O)c1nnc(NC(=O)c2ccccc2OC)s1 2.23%
COc1cc(C)c(Cc2cnc(N)nc2N)cc1OC -3.59%
CCOCCc1nn2c(=O)cc(COC(=O)c3ccc(NC(=O)C4CCCCC4)cc3)nc2s1 -31.4%
Cc1nn(-c2ccccc2)c(OC(=O)c2ccccc2Br)c1S(=O)(=O)c1ccccc1 -7.53%
Cc1cc(NC(=O)c2ccc3c(c2)N(Cc2cccc(Cl)c2)C(=O)c2ccccc2S3(=O)=O)ccc1Br -28.2%
O=C(Nc1ccc(Cl)cc1)C1CCC(CNS(=O)(=O)c2ccc(Br)s2)CC1 (stereo not drawn) -22.5%
O=C(CS(=O)(=O)c1cccc2nsnc12)N1CCN(c2ccccc2F)CC1 3.93%
O=C1CC(c2c(Cl)cccc2Cl)c2c(ccc3ccccc23)N1 (stereo not drawn) -37.6%
CC1=C(C(=O)Nc2ccccc2Cl)C(c2cccc(O)c2)n2ncnc2N1 (stereo not drawn) -6.2%
CCNC(=O)NCc1cccc(Cl)c1 -6.31%
CCc1ccc(-n2c(=O)c3sc4ccccc4c3n(CC(=O)N(CC)Cc3ccccc3)c2=O)cc1 -2.1%
O=C(Nc1ccc2nc(SCC(=O)N3CCc4ccccc43)sc2c1)c1ccccc1 -1.09%
CCOC(=O)c1c(C)[nH]c(C)c1S(=O)(=O)N1CCCC(C(=O)Nc2cc(C)ccc2C)C1 (stereo not drawn) -1.3%
CCCCNC(=O)CSc1nc2nc(C)c(Cc3c(F)cccc3Cl)c(C)n2n1 -19%
CC(=O)c1ccc(NC(=O)COc2ccccc2-c2nc(-c3ccc(C)cc3)no2)cc1 19.8%
O=C(NC1CC(=O)N(c2cccc(F)c2)C1)c1ccc2c(c1)OCO2 (stereo not drawn) -8.48%
Cc1ccc(OCC(=O)Nc2ccccc2C(=O)OCc2cc(=O)n3ccsc3n2)cc1 21.2%
O=C(C1CCC(Cn2c(=O)c3sccc3n(Cc3ccccc3)c2=O)CC1)N1CCOCC1 (stereo not drawn) -24.7%
Cc1ccc(-c2nnc(Nc3ccccc3O)c3ccccc23)cc1 -34.7%
O=C(Nc1cc2c(cc1C(=O)c1ccccc1Br)OCCO2)c1ccccc1 -11.2%
Cc1ccc(Cl)cc1N1CCN(C(=O)c2cnn(C)c2C2CCN(C(=O)OC(C)(C)C)CC2)CC1 -47.9%
COc1cc(OC)c(NC(=O)N2CCc3c([nH]c4ccccc34)C2c2ccccc2F)cc1Cl (stereo not drawn) -26.3%
O=C(Nc1ccccc1F)c1ccc(Cn2nc(N3CCN(c4ccccc4)CC3)ccc2=O)o1 -31.1%
CC(=O)O[C@]1(C(C)=O)CC[C@H]2[C@@H]3C=C(C)C4=CC(=O)CC[C@]4(C)[C@H]3CC[C@@]21C -3.25%
CCc1cc(C(=O)Nc2c(C)nn(Cc3ccccc3Cl)c2C)no1 -13.4%
Cc1cc(C)c(NC(=O)CN2C(=O)c3cccnc3Sc3ccccc32)c(C)c1 18.3%
O=C(CCC(=O)N1CC2CCCN2c2ccccc21)NCc1ccc(F)cc1 (stereo not drawn) -2.05%
CCc1ccc(NC(=O)CC2C(=O)NCCN2C(=O)c2ccc(F)cc2)cc1 (stereo not drawn) -4.21%
COc1ccc(S(=O)(=O)c2c(Nc3ccccc3F)sc(C(=O)c3cccc(OC)c3)c2N)cc1 -42.3%
CCOCCOC(=O)/C=C/c1ccc(OC)cc1 27.4%
CCCC(CCC)(C(=O)OCC)C(=O)OCC -1.03%
COc1cccc(C2CC(=O)Nc3c2ccc(C)c3C)c1OC (stereo not drawn) -28.8%
CCOc1ccccc1CNC(=O)c1ccc(CS(=O)Cc2cccc(Cl)c2)o1 (stereo not drawn) -15.4%
Cc1cccc(NC(=O)CSc2nnc(NC(=O)Nc3ccccc3)s2)c1C -9.28%
CSc1ccc(C2C(C(=O)Nc3ccccc3)=C(C)Nc3nc4ccccc4n32)cc1 (stereo not drawn) -8.48%
CSc1ccc(CNC(=O)Cn2nc(N3CCN(c4ccccc4)CC3)ccc2=O)cc1 -19%
Cc1ccccc1CNC(=O)C(=O)NCC(c1ccco1)S(=O)(=O)c1cccs1 (stereo not drawn) -2.35%
NC[C@H]1O[C@H](O[C@H]2[C@H](O)[C@@H](O[C@H]3O[C@H](CO)[C@@H](O)[C@H](N)[C@H]3O)[C@H](N)C[C@@H]2N)[C@H](N)[C@@H](O)[C@@H]1O -9.99% [at 25.1 µM, percent change from vehicle, -100% = no light]
CCc1ccc(-n2nc(CO)c(C(=O)NCCc3ccccc3)n2)cc1 3.33%
O=C(CSc1nc2c([nH]c3ccccc32)c(=O)n1-c1ccc(F)cc1)N1CCc2ccccc21 -18.9%
Cc1cc(C)cc(-n2c(SCC(=O)N3CCC(C)CC3)nc3c([nH]c4ccccc43)c2=O)c1 -15.8%
Cc1ccc(C)c(N2CCN(C(=O)Cc3c(C(=O)O)c(C)cn3C)CC2)c1 -9.77%
COc1cccc(C(=O)N2CCCCC2CCN2CCCCC2)c1 (stereo not drawn) -3.29%
NC(=O)c1cnc(-c2ccc(C3(N)CCC3)cc2)c(-c2ccccc2)c1 -13.2%
Cc1oc(-c2ccccc2F)nc1CS(=O)CC(=O)NC(C)C (stereo not drawn) -4.33%
COc1ccc(OC)c(NC(=O)c2cccc3c2C(=O)N(C2CCCCC2)C3)c1 -13.9%
Cc1cccc(Cn2c(CNS(=O)(=O)c3ccc(C(C)C)cc3)nc3cccnc32)c1 -23.1%
O=S(=O)(c1ccc(F)cc1)N(CC(O)Cn1c2ccccc2c2ccccc21)c1ccccc1 (stereo not drawn) -41.6%
COc1ccc(C(=O)NCC(c2ccc3c(c2)OCO3)N2CCN(C)CC2)cc1 (stereo not drawn) -3.94%
CCOc1ccc(CCNC(=O)c2nnc(Cc3ccc(Cl)cc3Cl)o2)cc1OCC -12.7%
COc1cc(OC)c(N(C)C(=O)c2c(C)oc3ncnc(N4CCCCC4)c23)cc1Cl -23%
CCOC(=O)c1cc2c(=O)n3ccccc3nc2n(CC2CCCO2)c1=NC(=O)c1ccccc1C (stereo not drawn) -3.68%
CCn1cc(/C=C(\NC(=O)c2ccc(C)cc2)C(=O)NCCCn2ccnc2)c2ccccc21 -14.3%
CCOc1ccc2nc(N3CCN(C(=O)c4ccco4)CC3)sc2c1 33.1%
Cc1ccc2c(=O)cc(C(=O)NCc3ccccc3)oc2c1 -20.3%
COc1ccc(CNC(=O)C2CCCN(S(=O)(=O)c3ccc4c(ccn4C)c3)C2)c(OC)c1 (stereo not drawn) -29.2%
COc1ccc(NC(C)=O)cc1NC(=O)C1(c2cccs2)CCOCC1 0%
COc1ccc(C2=NC(C)(C)N(CC(=O)Nc3cc(OC)cc(OC)c3)C2=O)cc1 -1.71%
CN(c1ccc(F)cc1)S(=O)(=O)N1CCCC(C(=O)NCCc2ccccc2)C1 (stereo not drawn) -13.3%
Cn1c2cc(S(C)=O)sc2c2cnn(Cc3cccc(N)c3)c(=O)c21 (stereo not drawn) -14.3%
Cc1ccc(-c2cc3nccc(-c4cc([N+](=O)[O-])ccc4O)n3n2)cc1 -70.8%
CCOc1ccc(S(=O)(=O)NCc2nc3cccnc3n2Cc2ccccc2OC)cc1 -20.1%
CCCCNC(=O)CSc1nc2n[nH]c(C)c2c(=N)n1-c1cccc(C)c1 -25.5%
Cc1c(C(=O)OC2CCCCCC2)[nH]c2c1C(=O)CC(c1ccccc1)C2 (stereo not drawn) -25.3%
Cc1nc2ccc(S(=O)(=O)NC(CC(C)C)C(=O)NCc3ccc(Cl)cc3)cc2s1 (stereo not drawn) -31.1%
C[C@@H]1O[C@@H](OC[C@H]2O[C@@H](Oc3c(-c4ccc(O)c(O)c4)oc4cc(O)cc(O)c4c3=O)[C@H](O)[C@@H](O)[C@@H]2O)[C@H](O)[C@H](O)[C@H]1O 1.58%
COc1cc(NC(=O)CN2CCCN(S(=O)(=O)c3ccc(F)cc3)CC2)cc(OC)c1 -10.2%
O=C(Nc1ccccc1Br)c1cc(S(=O)(=O)NC2CCCCC2)ccc1F -28.7%
CCOC(=O)c1cc(S(=O)(=O)Nc2c(C)cc(C)cc2C)[nH]n1 -18.7%
CC(=O)NC(C)c1nc2ccccc2n1Cc1ccccc1Cl (stereo not drawn) -10.7%
CCOC(=O)N1CCN(c2ncc3c(n2)CC(c2ccc(Cl)cc2)CC3=O)CC1 (stereo not drawn) -3.48%
Cc1ccc(C)c(NC(=O)C2CCCN2S(=O)(=O)c2ccc3c(c2)n(C)c(=O)c(=O)n3C)c1 (stereo not drawn) 1.37%
COc1ccc(C2C(C(=O)Nc3cccnc3)=C(C)Nc3nc(SCc4ccccc4)nn32)cc1 (stereo not drawn) -12.7%
CCOCCCNC(=O)c1ccc(Cn2c(=O)c3cccn3c3cccnc32)cc1 -24.8%
COc1cc(-c2noc(-c3ccc(NC4CCCC4)c([N+](=O)[O-])c3)n2)cc(OC)c1OC -6.56%
CCOC(=O)CCCCN(Cc1ccccc1F)S(=O)(=O)c1ccc(F)c(C(=O)Nc2cc(Cl)cc(Cl)c2)c1 -24.1%
CCOc1ccc(NC(=O)Nc2cc3c(cc2N2CCCCC2)n(C)c(=O)n3C)cc1 -37.3%
O=C(NCc1ccc(F)cc1)c1nnc(Cc2cccc(F)c2)o1 -18.5%
COc1ccc(-c2noc(-c3cc(-c4ccc(F)cc4)n[nH]3)n2)cc1 -13.5%
CC(C)c1ccc(NC(=O)c2cnc3sc(N4CCCC4)nn3c2=O)cc1 -24.5%
CCOc1ccc(-c2nonc2NC(=O)c2ccco2)cc1OCC 0.113%
CCOC(=O)c1ccc(NC(=O)CC2C(=O)N(c3cccc(C)c3)C(=O)N2CCOC)cc1 (stereo not drawn) 0%
COc1ccc(OC)c(-c2csc(-c3c(N)c(C(=O)c4ccc(Cl)cc4)n4ccccc34)n2)c1 -4.64%
CCOc1cc(CNC(=O)NC2COc3ccccc3C2)cc(OCC)c1OCC (stereo not drawn) -10.7%
Cc1ccc(OCC(=O)Nc2nnc(SCc3cc(=O)n4cccc(C)c4n3)s2)cc1 -1.05%
